Out of some 310,000 compounds screened, about 14,000 (4.5%) showed an effect of 50% or more. The effect is printed as a negative number. Some of the results follow.
What follows are compounds tested against human ether-à-go-go-related gene (hERG) potassium channel (human, UniProt Q12809) (assay: primary screen, population patch clamp on CHO cells stably expressing hERG).
Sequence of human ether-à-go-go-related gene (hERG) potassium channel (Q12809 whole entry, looked up): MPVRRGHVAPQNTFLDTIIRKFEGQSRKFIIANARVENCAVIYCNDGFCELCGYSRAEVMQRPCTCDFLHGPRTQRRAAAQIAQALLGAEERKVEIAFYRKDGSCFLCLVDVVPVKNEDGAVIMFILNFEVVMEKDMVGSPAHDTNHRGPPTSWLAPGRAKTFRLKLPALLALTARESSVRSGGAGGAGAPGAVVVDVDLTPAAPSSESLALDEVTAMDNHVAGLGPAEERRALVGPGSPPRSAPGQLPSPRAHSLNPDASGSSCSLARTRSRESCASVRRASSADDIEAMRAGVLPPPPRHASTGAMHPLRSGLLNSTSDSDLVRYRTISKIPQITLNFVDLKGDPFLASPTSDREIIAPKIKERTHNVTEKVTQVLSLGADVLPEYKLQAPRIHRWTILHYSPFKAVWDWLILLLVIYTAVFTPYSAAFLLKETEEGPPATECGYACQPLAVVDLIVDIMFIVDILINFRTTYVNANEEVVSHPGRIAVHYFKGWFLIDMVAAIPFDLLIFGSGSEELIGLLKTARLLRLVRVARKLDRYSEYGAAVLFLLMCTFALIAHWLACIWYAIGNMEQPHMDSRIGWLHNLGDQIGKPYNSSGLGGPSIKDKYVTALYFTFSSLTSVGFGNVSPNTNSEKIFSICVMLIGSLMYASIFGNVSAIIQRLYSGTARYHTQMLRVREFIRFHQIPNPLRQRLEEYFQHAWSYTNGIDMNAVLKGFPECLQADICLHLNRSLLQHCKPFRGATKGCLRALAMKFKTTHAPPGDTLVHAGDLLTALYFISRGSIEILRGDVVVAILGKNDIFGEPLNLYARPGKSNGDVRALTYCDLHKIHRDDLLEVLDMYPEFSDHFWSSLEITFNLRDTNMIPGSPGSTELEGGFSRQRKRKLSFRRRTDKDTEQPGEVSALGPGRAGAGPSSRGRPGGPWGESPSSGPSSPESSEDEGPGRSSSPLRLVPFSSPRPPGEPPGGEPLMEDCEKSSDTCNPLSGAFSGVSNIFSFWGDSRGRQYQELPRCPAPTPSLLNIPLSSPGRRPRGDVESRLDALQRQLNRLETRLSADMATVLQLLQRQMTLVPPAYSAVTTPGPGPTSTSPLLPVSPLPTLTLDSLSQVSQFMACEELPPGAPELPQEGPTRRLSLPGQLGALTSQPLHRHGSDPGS
Cc1ccc(OCCC(=O)Nc2ccccc2C(=O)N2CCCCC2)cc1 was tested, and the “hERG current change (%, negative = inhibition) at 10uM” value was -12.7%. In the case of COC(=O)c1c(NC(=O)c2ccco2)sc2c1CCN(C(C)C)C2.Cl, the “hERG current change (%, negative = inhibition) at 10uM” value is reported as -62.5%. O=C(CSc1cccc[n+]1[O-])Nc1cc([N+](=O)[O-])ccc1Cl was tested, and the “hERG current change (%, negative = inhibition) at 10uM” value was 18.2%. In the case of CCCOc1ccc(C(=O)NNC(=S)NC(C)=O)cc1, the “hERG current change (%, negative = inhibition) at 10uM” value is reported as 9.17%. With O=[N+]([O-])c1ccc(-c2nc(NCC3CCCO3)c3ccccc3n2)cc1 (stereo not shown) the “hERG current change (%, negative = inhibition) at 10uM” value was 12.3%. Cc1ccc(CN2CCN(C(=O)C3CCCO3)CC2)cc1 (stereo not shown) was tested, and the “hERG current change (%, negative = inhibition) at 10uM” value was 3.55%. For CCC(=O)Nc1nnc(S(=O)(=O)N(CC)c2ccc(Cl)cc2)s1, the “hERG current change (%, negative = inhibition) at 10uM” value was 9.75%. COc1ccc(N2CCN(C(=O)c3cc4c(s3)CCCCC4)CC2)cc1 was tested, and the “hERG current change (%, negative = inhibition) at 10uM” value was -40.2%. O=C(Nc1ccc2c(c1)OCCO2)C1CCCN1S(=O)(=O)c1cccc2cccnc12 (stereo not shown) was tested, and the “hERG current change (%, negative = inhibition) at 10uM” value was 9.45%. In the case of O=C(NCCCN1CCOCC1)C(=O)NCc1ccccc1Cl, the “hERG current change (%, negative = inhibition) at 10uM” value is reported as 12.8%. For Clc1c(CSc2nc3ccccc3o2)nc2sccn12, the “hERG current change (%, negative = inhibition) at 10uM” value was 5.65%. COc1ccc(CCNC(=O)c2ccc(OCC(=O)N3CCOCC3)c(OC)c2)cc1OC was tested, and the “hERG current change (%, negative = inhibition) at 10uM” value was 7.6%. In the case of O=C(N/C(=C/c1ccc(Br)cc1)C(=O)N1CCOCC1)c1cccs1, the “hERG current change (%, negative = inhibition) at 10uM” value is reported as -5.65%. In the case of Cc1ccc(C(=O)N/C(=C/c2ccco2)C(=O)Nc2cccc(C(=O)O)c2)cc1, the “hERG current change (%, negative = inhibition) at 10uM” value is reported as 16.3%. With COCc1n[nH]c(=S)n1-c1ccccc1 the “hERG current change (%, negative = inhibition) at 10uM” value was 15.2%. Cc1ccc(C)c(C2C(=O)c3ccccc3C2=O)c1 was tested, and the “hERG current change (%, negative = inhibition) at 10uM” value was -4.36%. CCc1nn(C(CC)C(=O)NCc2cccs2)c(=O)c2cc3occc3n12 (stereo not shown) was tested, and the “hERG current change (%, negative = inhibition) at 10uM” value was 6.57%. In the case of CCN(CC(=O)Nc1cc(Cl)ccc1C)C(=O)c1ccc2c(c1)NC(=O)C(C)S2 (stereo not shown), the “hERG current change (%, negative = inhibition) at 10uM” value is reported as -33.7%. With O=C(O)CCCN1C(=O)C(=O)/C(=C(/O)c2ccccc2)C1/C=C/c1ccccc1 (stereo not shown) the “hERG current change (%, negative = inhibition) at 10uM” value was 4.17%. Cc1ccc(NC2=NCC(=O)N2C2CCCC2)cc1C.Cl was tested, and the “hERG current change (%, negative = inhibition) at 10uM” value was 13.4%. In the case of CC1CCN(C(=O)C2CC(c3ccc(F)cc3)=NO2)CC1 (stereo not shown), the “hERG current change (%, negative = inhibition) at 10uM” value is reported as -11.5%. Cc1cccc(NC(=O)Cn2cnc(S(=O)(=O)N3CCCC3)c2)c1C was tested, and the “hERG current change (%, negative = inhibition) at 10uM” value was 12.9%. In the case of COc1cccc(NC(=O)c2oc3ccccc3c2NC(C)=O)c1, the “hERG current change (%, negative = inhibition) at 10uM” value is reported as -0.721%. CC1=C(C(=O)OCC2CCCO2)C(c2ccncc2)C2=C(CC(C)(C)CC2=O)N1 (stereo not shown) was tested, and the “hERG current change (%, negative = inhibition) at 10uM” value was -10.3%. For O=C(CSc1nnc(-c2cccnc2)n1C1CCCCC1)NC1CCCCC1, the “hERG current change (%, negative = inhibition) at 10uM” value was -17.4%. O=C(C1CCC1)N1CCN(c2ccc(Cl)cc2)CC1 was tested, and the “hERG current change (%, negative = inhibition) at 10uM” value was -5.33%. In the case of COc1cc(N)ccc1Cc1ccc(N)cc1OC, the “hERG current change (%, negative = inhibition) at 10uM” value is reported as 22%. For CC(=O)Nc1c(C(=O)c2ccccc2)oc2ccccc12, the “hERG current change (%, negative = inhibition) at 10uM” value was -10.3%. With NC(=O)C[n+]1cccc(CNC(=O)c2ccc(OC(F)F)cc2)c1.[Cl-] the “hERG current change (%, negative = inhibition) at 10uM” value was -1.5%. For COc1ccc(C(=O)c2ccc(Br)cc2)c2ccccc12, the “hERG current change (%, negative = inhibition) at 10uM” value was -6.64%. With COc1ccc(C)cc1S(=O)(=O)N1CCN(C(=O)c2ncoc2-c2ccccc2F)CC1 the “hERG current change (%, negative = inhibition) at 10uM” value was 16.2%. Cc1c(C)n(C)c2ccc(C(=O)NCCN3CCOCC3)cc12 was tested, and the “hERG current change (%, negative = inhibition) at 10uM” value was 17.5%. For O=c1/c(=C/c2ccco2)sc2n1CN(c1cccc(Br)c1)CN=2, the “hERG current change (%, negative = inhibition) at 10uM” value was 14.2%. With CCc1ccc(N(C(=O)Cn2nnc(-c3ccccc3)n2)C(C(=O)NC2CCCCC2)c2ccccn2)cc1 (stereo not shown) the “hERG current change (%, negative = inhibition) at 10uM” value was -46%. With CN(Cc1ccc(F)cc1)Cc1nc(CCc2ccccc2)no1 the “hERG current change (%, negative = inhibition) at 10uM” value was 0.381%. With COc1ccc(Oc2nc(SC)nc3ccsc23)cc1 the “hERG current change (%, negative = inhibition) at 10uM” value was 12.3%. In the case of CCOC(=O)CCC(=O)Nc1cc(S(=O)(=O)N2CCOCC2)ccc1N1CCCCC1, the “hERG current change (%, negative = inhibition) at 10uM” value is reported as -15.5%. In the case of Cc1ccc(NC(=O)C2CC(=O)OC23CCOC(C)(C)C3)cc1 (stereo not shown), the “hERG current change (%, negative = inhibition) at 10uM” value is reported as 1.08%. For C#CCN1CCN(c2cccc(C(F)(F)F)c2)CC1, the “hERG current change (%, negative = inhibition) at 10uM” value was 8.78%. In the case of O=C(Cn1c(=O)n(CCc2c[nH]c3ccccc23)c(=O)c2cccnc21)Nc1ccccc1F, the “hERG current change (%, negative = inhibition) at 10uM” value is reported as 2.96%. CCCn1c(=O)c2sccc2n2c(CCCC(=O)NCc3ccco3)nnc12 was tested, and the “hERG current change (%, negative = inhibition) at 10uM” value was -19.2%. With COC(=O)CNC(=O)c1cccs1 the “hERG current change (%, negative = inhibition) at 10uM” value was 9.38%. For O=C(CCC1COc2ccccc2O1)Nc1cccnc1 (stereo not shown), the “hERG current change (%, negative = inhibition) at 10uM” value was -6.92%.
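Note: peak tail current of the secondary pulse compared with the same well before compound.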
